Results published in the supplement of paper PMC3334620.
Over roughly 33,000 sequences, “E-score (-0.5 to 0.5)” has its median near -0.016; the highest 2% begin near 0.32. Some of the results follow.

target: T1, Stp1 (UniProt B3LFK1); assay: PBM E-score (8-mer binding enrichment) (E-score (-0.5 to 0.5)); higher = stronger / more preferred TF binding; most listed sequences are background and not binding sites; conditions: protein concentration: 200 nM; construct: GST-full length
T1 sequence: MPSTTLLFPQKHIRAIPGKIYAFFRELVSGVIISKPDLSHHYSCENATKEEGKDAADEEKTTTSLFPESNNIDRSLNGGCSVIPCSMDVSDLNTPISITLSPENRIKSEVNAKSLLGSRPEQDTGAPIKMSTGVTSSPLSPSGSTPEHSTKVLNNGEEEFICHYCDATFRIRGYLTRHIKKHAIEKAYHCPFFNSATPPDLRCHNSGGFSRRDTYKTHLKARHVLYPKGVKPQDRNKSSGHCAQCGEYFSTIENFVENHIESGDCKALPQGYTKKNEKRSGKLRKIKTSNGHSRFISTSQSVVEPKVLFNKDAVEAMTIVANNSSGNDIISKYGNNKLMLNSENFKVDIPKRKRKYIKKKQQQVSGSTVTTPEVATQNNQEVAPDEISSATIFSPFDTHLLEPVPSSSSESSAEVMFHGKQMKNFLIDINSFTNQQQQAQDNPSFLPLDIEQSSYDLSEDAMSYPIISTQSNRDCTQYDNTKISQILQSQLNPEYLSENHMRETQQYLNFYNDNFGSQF
Outline: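 Using PURExpress in vitro transcription/translation, GST-tagged yeast transcription factors were made in full-length or DNA-binding-domain form. These were applied at about 100-200 nM to double-stranded universal all-10-mer Agilent arrays, and bound protein was detected with fluorescent anti-GST. Scans were normalised with masliner before the Universal PBM Analysis Suite assigned E-scores to ungapped eight-base words pooled with their reverse complements.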

Sequence | PBM E-score
GACTCGCA | -0.204
GATAACGA | 0.00088
CAGCAGCA | 0.146
AAGTCTGG | -0.218
ATCATATG | 0.0474
AGTCTGCA | -0.258
CATACTCA | -0.0504
CTTTAAAC | 0.138
CGGATGAA | 0.134
GCTCTTCA | -0.0619
TAGGGGCA | -0.352
GACTGCGC | -0.0492
AACCCGGC | -0.00624
AGTCGGGA | -0.234
CCATAGCA | -0.101
ACCTCGTA | -0.0684
CGCCACAC | 0.324
ATAAAACA | 0.199
ATATAAGA | 0.26
AAATAAGA | 0.0887
ACCCGTTA | -0.0466
GCAGGACA | -0.0503

Sequence | PBM E-score
CCTCGCTA | -0.231
CTGTTACA | 0.0257
ACCCATAG | -0.382
TCAGCCGA | -0.0181
AAGACCTC | -0.283
CTCAAGGA | -0.11
AAGCGCTG | -0.0462
AGCTAACG | -0.126
AGTGATAA | -0.023
AAAGCAAG | 0.136
AAGATTCG | 0.191
GCTTAAGA | 0.227
AGGCCAAA | 0.0796
CAAGGAAC | -0.0354
CTGTCGAA | 0.0374
CGTTTGCA | 0.0874
CAATGCTA | -0.0491
CCGCTCGC | 0.199
AACAAATG | 0.0454
CCTTTTAC | 0.136
GGACATAC | 0.0525
ACTTAGAT | 0.167

Sequence | PBM E-score
CTTCCAAA | 0.0921
CGGAGCTC | -0.272
CCCATGAA | -0.0263
ATGCAGAC | 0.0383
TCAGGCAA | -0.0931
CATAGAAC | -0.0111
GTGCTCTA | -0.198
AGATAACA | 0.13
CAGCTAGA | 0.102
AACGTTTG | -0.142
GAAGATCC | -0.186
CCCGCGAA | -0.0469
ATCGTAAG | -0.0327
CGTGCATC | 0.0537
AGTAAAAC | 0.119
ACTGCCGC | 0.412
AACCCAGA | -0.0382
ATTCCTTA | 0.0713
ACCATTAA | 0.112
AACTAATG | 0.11
CCTGAGCG | -0.0794
TACGTCAA | -0.0778

Sequence | PBM E-score
CCGTGACC | -0.127
CTGTGCAA | 0.0109
CAGTACTC | -0.295
CACACATA | 0.0548
AACGGTGT | 0.044
GCAGTGAA | 0.159
ATCAGCGG | -0.0125
AACTTATA | 0.143
ACGAGTAG | 0.149
CAGCACGG | 0.333
ATAAGAAC | 0.118
CACATGAA | 0.0511
TCTTCGAA | -0.0288
CTAAGAAC | -0.0142
CCACCGTA | -0.0503
CTGACGCA | -0.0553
GAAGGCTC | -0.0301
CCCTAGTC | -0.312
AGGCTCTC | -0.137
TATTCTCA | 0.0404
